Out of some 380,000 compounds screened, about 4,000 (1.1%) were called active. Inconclusive results, whose numbers are uncertain, are shown with a selection of clear calls. Calls come from the whole dose curve; as a rule, active = well fitted activation curve with a large enough effect; inconclusive = small, poorly fitted or top-dose-only effect; inactive = no such curve, though single readings can be large or run the other way. Where the call is inconclusive, the potency comes from a doubtful curve fit.
assay: qHTS Assay to Identify Small Molecule Activators of BRCA1 Expression; conditions: MCF7-BRCA1-FFLuc reporter, luminescence, 48 h; activation: at 46.1 µM (top of the series), scaled: vehicle 0%, 10 µM genistein 100% unless noted; note: nearly all actives have a fitted effect of over 80% in size
Procedure, shortened: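 MCF7-BRCA1-FFLuc cells, 2000/well in phenol-red-free MEM, attached 2 h then treated 48 h at 37 C. Luciferase luminescence read 15 min after reagent; normalized to genistein maximum activation (10microM) and DMSO, concentration-response fitted.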
Potency is the fitted concentration of half-maximal effect; tags give direction and shape of the fitted curve.

| SMILES | Potency | activation |
| --- | --- | --- |
| COc1ccc(-c2csc(C(O)c3ccccc3)n2)cc1 (stereo not drawn) | inconclusive: 11.2 µM [activator, partial curve, poor fit] |  |
| O=C(NC(=S)Nc1nc(-c2cccc3ccccc23)cs1)c1cc2ccccc2o1 |  | inactive: -14% |
| Cc1noc(C)c1CCC(=O)N1CCCC(CO)(Cc2ccccc2)C1 (stereo not drawn) | inconclusive: 12.6 µM [activator, partial curve, poor fit] |  |
| C/C(=N\NC(=O)c1ccc(CSc2nncn2C)cc1)c1cccs1 | inconclusive: 3.55 µM [activator, partial curve, poor fit] |  |
| CCOc1ccccc1CN1CCN(Cc2c[nH]c3ccccc23)CC1CCO (stereo not drawn) |  | inactive: -20.2% |
| Cc1cc(C(=O)N/N=C/c2ccccc2[N+](=O)[O-])c(C)o1 | inconclusive: 12.6 µM [activator, partial curve, poor fit] |  |
| Cc1ccc2c(c1)CCCN2C(=O)Nc1ccc2c(c1)OCO2 |  | inactive: 0% |
| COc1ccc2c(c1OC)C(=O)OC2Nc1nc(-c2ccc(-c3ccccc3)cc2)cs1 (stereo not drawn) | inconclusive: 0.631 µM [activator, full curve, poor fit] |  |
| Cc1ccc(-c2n[nH]c(Cc3ccccc3)n2)cc1 | active: 5.62 µM |  |
| CC(C)(C)NCC(=O)N/N=C/c1ccc(OCc2ccccc2)cc1 | active: 10 µM |  |
| OCCN(/C=N/c1nc(-c2ccc(Br)cc2)cs1)CCO | inconclusive: 11.2 µM [activator, partial curve, poor fit] |  |
| NNC(=O)c1cccc(COc2ccc3c(c2)CCC3)c1 |  | inconclusive: -98.8% [activator] |
| Cc1nc(NCc2ccccc2)sc1C(=O)Nc1ccccc1 | inconclusive: 11.2 µM [activator, partial curve, poor fit] |  |
| Oc1c(Cl)cc(Cl)cc1C=Nc1ccc2c(c1)OCCO2 |  | inactive: -46.4% |
| CC(C)c1ccc(C(=O)NCCCc2ccccc2)cc1 | active: 10 µM |  |
| CN(C)c1ccc(N/C=C/C(=O)c2ccccc2)cc1 |  | inconclusive: -24.1% [activator] |
| CC1=CC(C)(C)Nc2ccc(OC(=O)c3ccco3)cc21 |  | inactive: -83.9% |
| COc1ccccc1C(=O)Nc1nc(-c2ccccc2)ns1 | inconclusive: 2.82 µM [activator, full curve, poor fit] |  |
| Cc1cccc(NC(=O)/C=C/c2ccc(Cl)cc2)n1 | inconclusive: 2.24 µM [activator, full curve, poor fit] |  |
| O=C1Nc2c(Cl)cccc2C1=O |  | inactive: -10.9% |
| CCOC(=O)Cn1c(CN2CCc3ccccc3C2)nc2c1c(=O)n(C)c(=O)n2C |  | inactive: -1.68% |
| OC[C@@H]1CN(Cc2ccco2)C[C@H](n2cnc3c(N4CCOCC4)ncnc32)O1 |  | inactive: 11.6% |
| Cc1ccc(-c2cc3nc(-c4ccccc4)cc(N)n3n2)cc1 | inconclusive: 2.82 µM [activator, partial curve, poor fit] |  |
| CCOC(=O)C1(Cc2cccc(OC)c2)CCN(Cc2ccccc2OC)CC1 |  | inactive: 0% |

| SMILES | Potency | activation |
| --- | --- | --- |
| CN(C)c1ccnc2sc(C(=O)c3ccccc3)c(N)c12 | inconclusive: 2.51 µM [activator, partial curve, poor fit] |  |
| C=CCSc1nncn1/N=C/c1ccc(OC)cc1 | active: 2.24 µM |  |
| O=C(c1ccco1)N1CCN(c2nc(-c3ccc(F)cc3)cs2)CC1 | inconclusive: 4.47 µM [activator, partial curve, poor fit] |  |
| COc1ccc(CNc2nc3nc(C)c(Cl)c(C)n3n2)cc1 | inconclusive: 7.94 µM [activator, partial curve, poor fit] |  |
| Cc1ccc(C(=O)N2CCc3ccccc32)cc1C | inconclusive: 14.1 µM [activator, partial curve, poor fit] |  |
| CSc1nsc(SCC(=O)Nc2ccc(NC(C)=O)cc2)n1 |  | inactive: 3.71% |
| COC(=O)C1C(=O)c2c([nH]c(C(=O)OC3CCCCCC3)c2C)CC1C (stereo not drawn) | inconclusive: 2.51 µM [activator, partial curve, poor fit] |  |
| C=CCn1cccc(C(=O)Nc2ccc(C)c(Cl)c2)c1=O | active: 4.47 µM |  |
| CCOC(=O)c1c(NC(=O)c2cc(-c3ccc(Cl)s3)nc3ccccc23)sc(C(N)=O)c1C |  | inactive: -17% |
| O=C(Nc1ccc(NC(=O)C2CC2)cc1)c1cccs1 | active: 10 µM |  |
| O=S(=O)(c1ccc2c(c1)CCCC2)N1CCN(c2nc(-c3ccccc3)nc3ccccc23)CC1 |  | inactive: 0% |
| O=c1[nH]c(N/N=C/c2ccccc2)nc2ccccc12 | inconclusive: 2.51 µM [activator, partial curve, poor fit] |  |
| N#Cc1c(NC(=O)c2ccccc2)sc2c1CCCCC2 | inconclusive: 0.501 µM [activator, full curve, poor fit] |  |
| O=C(CSC1CCCCC1)N1CCN(c2ccccc2)CC1 | inconclusive: 25.1 µM [activator, single point] |  |
| CCOC(=O)c1c(-c2ccccc2)csc1NC(=O)/C(C#N)=C/c1ccc(OC)c(OC)c1 |  | inactive: -5% |
| Cc1cc(C(=O)Nc2nnc(C3CCCCC3)s2)cs1 | inconclusive: 1.78 µM [activator, full curve, poor fit] |  |
| O=c1c2[nH]c3ccccc3c2ncn1Cc1ccccn1 |  | inactive: -3.58% |
| O=C(COC(=O)C1CC1)Nc1ccc(N=Nc2ccccc2)cc1 | active: 2.51 µM |  |
| O=C(O)c1cocc1C(=O)O |  | inactive: 11.3% |
| CCCCC(=O)Nc1ccc(C(=O)c2ccccc2)cc1 | inconclusive: 11.2 µM [activator, partial curve, poor fit] |  |
| CC(C)c1ccc(NC(=O)c2csnn2)cc1 | inconclusive: 2 µM [activator, partial curve, poor fit] |  |
| N#Cc1ccccc1S(=O)(=O)N1CCN(c2nc(-c3cccs3)nc3ccccc23)CC1 | inactive |  |
| C=CCn1c(C)cc(C(=O)COc2nncc3ccccc23)c1C | inconclusive: 2.24 µM [activator, full curve, poor fit] |  |
| CN(C(=O)c1ccc(NC(=O)Cc2cccc(NC(=O)C3CCCN(S(=O)(=O)c4cccc([N+](=O)[O-])c4)C3)c2)cc1)C1CC1 (stereo not drawn) | inconclusive: 14.1 µM [activator, single point] |  |

Source: PubChem BioAssay AID624202 (National Center for Advancing Translational Sciences (NCATS), 2012)
